From the supplement of paper PMC10185492
The list shows a part of the results. Values come from read counts of a selection and are noisy.

These substances were tested on SARS-CoV-2 3CLpro (nsp5) (assay: substrate phage enrichment score (protease-eluted vs HEPES control, +1 offset) (ratio); higher = better cleaved substrate). Conditions: selection round: 4; protease elution time: 15 min.
Experimental: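 Random heptapeptide substrate phage display (M13 pIII fusion, heptapeptide between an N-terminal biotinylated AviTag GLNDIFEAQKIEWHE and pIII; phages immobilised on streptavidin) eluted by cleavage with 50 nM protease in 20 mM HEPES at 37 °C. Selected phages were NGS sequenced, and the enrichment score is (reads in protease sample + 1)/(reads in HEPES blank-selection control + 1).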
For SVLQSAH, the “substrate phage enrichment score” value was > 25. SCWTSAK was tested, and the “substrate phage enrichment score” value was > 25. RASLLHS was tested, and the “substrate phage enrichment score” value was > 29. With KCNSQEN the “substrate phage enrichment score” value was > 81. In the case of CVPTKHR, the “substrate phage enrichment score” value is reported as 11. In the case of HYKGMEW, the “substrate phage enrichment score” value is reported as 1.33. For TSSYSRA, the “substrate phage enrichment score” value was 0.417. With AQPNAGQ the “substrate phage enrichment score” value was 16. For VSGPPGH, the “substrate phage enrichment score” value was 0.0938. In the case of ERHEPTF, the “substrate phage enrichment score” value is reported as > 59. For THRGAPR, the “substrate phage enrichment score” value was > 24. In the case of CAETAKE, the “substrate phage enrichment score” value is reported as 0.75. In the case of EASTWGA, the “substrate phage enrichment score” value is reported as 2.27. In the case of RLYFQGG, the “substrate phage enrichment score” value is reported as 0.681. With PTEMSNQ the “substrate phage enrichment score” value was > 63. In the case of CSSNLMQ, the “substrate phage enrichment score” value is reported as > 22. With QPLITPG the “substrate phage enrichment score” value was 3.12. IEAAHHH was tested, and the “substrate phage enrichment score” value was 0.791. TTCEYGS was tested, and the “substrate phage enrichment score” value was > 36. CGVEARS was tested, and the “substrate phage enrichment score” value was 0.421. For GVAAHHH, the “substrate phage enrichment score” value was 0.609. For MQCQSPR, the “substrate phage enrichment score” value was 0.286. With TYHLTDQ the “substrate phage enrichment score” value was 3.58. In the case of PCGVLLF, the “substrate phage enrichment score” value is reported as 0.087. With ASSAKVS the “substrate phage enrichment score” value was 4.22. In the case of NAQESRL, the “substrate phage enrichment score” value is reported as 0.441. In the case of LKYLEGQ, the “substrate phage enrichment score” value is reported as 0.846. In the case of CAAAHHN, the “substrate phage enrichment score” value is reported as 0.796. In the case of STLGGTT, the “substrate phage enrichment score” value is reported as 1.56. In the case of CSVEGHS, the “substrate phage enrichment score” value is reported as 13. For RAAAHQH, the “substrate phage enrichment score” value was 1.45. With SSASAAE the “substrate phage enrichment score” value was > 27. With WEEYTTN the “substrate phage enrichment score” value was > 24. For ATHVLNQ, the “substrate phage enrichment score” value was 0.5. For GTAVLHC, the “substrate phage enrichment score” value was > 28. With AHCPLRV the “substrate phage enrichment score” value was 2.29. TKAQEKA was tested, and the “substrate phage enrichment score” value was 7.9. With CREPIYR the “substrate phage enrichment score” value was 1.88. With KNHTTKQ the “substrate phage enrichment score” value was 17. For KEVRSPP, the “substrate phage enrichment score” value was > 25. With TECRPGQ the “substrate phage enrichment score” value was > 38. In the case of RRTILHA, the “substrate phage enrichment score” value is reported as > 52. For QARLQAC, the “substrate phage enrichment score” value was > 95. With CPKGELT the “substrate phage enrichment score” value was 1.86. With QQQGSAE the “substrate phage enrichment score” value was 0.812. In the case of ELFAYPQ, the “substrate phage enrichment score” value is reported as > 83. With FQCWCAE the “substrate phage enrichment score” value was > 27. In the case of NGVCMTH, the “substrate phage enrichment score” value is reported as > 26. In the case of TQINAET, the “substrate phage enrichment score” value is reported as 0.211. For DKSGLTA, the “substrate phage enrichment score” value was 2.25. In the case of EFHSQAT, the “substrate phage enrichment score” value is reported as 9.86. With AAGTGEC the “substrate phage enrichment score” value was > 24. ATRQRLT was tested, and the “substrate phage enrichment score” value was > 27. With SRSSQKQ the “substrate phage enrichment score” value was > 24. VAASPAG was tested, and the “substrate phage enrichment score” value was 1.93. ASYESAT was tested, and the “substrate phage enrichment score” value was 2.62. STVERTM was tested, and the “substrate phage enrichment score” value was > 44. In the case of GMPTWNR, the “substrate phage enrichment score” value is reported as 2. HGSQHNG was tested, and the “substrate phage enrichment score” value was 1.63. In the case of SMNSGGP, the “substrate phage enrichment score” value is reported as 3.8. For QRSTCPK, the “substrate phage enrichment score” value was 0.967. With TSYPQAR the “substrate phage enrichment score” value was > 23. With TQGGSAA the “substrate phage enrichment score” value was 1.44. With CLEQGNY the “substrate phage enrichment score” value was 1.7. SRTYLQS was tested, and the “substrate phage enrichment score” value was 13.5. With VRNDGTT the “substrate phage enrichment score” value was > 22. For MGETGLH, the “substrate phage enrichment score” value was 0.0833. For GTRWNPT, the “substrate phage enrichment score” value was 2.3. For AHVPPLS, the “substrate phage enrichment score” value was 0.643. For SERPLSG, the “substrate phage enrichment score” value was 0.917. With TNRALIT the “substrate phage enrichment score” value was 5.18. In the case of STTAHHH, the “substrate phage enrichment score” value is reported as 0.788. In the case of PHCAAAH, the “substrate phage enrichment score” value is reported as 4.4. For CFRTGNI, the “substrate phage enrichment score” value was > 26. QSSCGQG was tested, and the “substrate phage enrichment score” value was 4.3. With SKISGCR the “substrate phage enrichment score” value was > 31. KSRERPQ was tested, and the “substrate phage enrichment score” value was 0.48. VCSGNRF was tested, and the “substrate phage enrichment score” value was 3.16. For EYTQDRG, the “substrate phage enrichment score” value was > 32. With AHHHHHH the “substrate phage enrichment score” value was 1.64. In the case of DHTVLQC, the “substrate phage enrichment score” value is reported as > 59. For RSARLHC, the “substrate phage enrichment score” value was 4.5. TTLTPQR was tested, and the “substrate phage enrichment score” value was > 22. ATHNDMR was tested, and the “substrate phage enrichment score” value was 0.265. In the case of ANATPVG, the “substrate phage enrichment score” value is reported as 2.14. With CDAKTGT the “substrate phage enrichment score” value was 26.5. With SSDANCS the “substrate phage enrichment score” value was > 50. VGAVRGT was tested, and the “substrate phage enrichment score” value was 1.38. With PERVRQP the “substrate phage enrichment score” value was 1.4. In the case of EPAPDFW, the “substrate phage enrichment score” value is reported as 11.5. With DVTTTWQ the “substrate phage enrichment score” value was 10.5. In the case of TSRPCAG, the “substrate phage enrichment score” value is reported as 5.67. In the case of ARKDVAL, the “substrate phage enrichment score” value is reported as 2.29. With QYAKDRE the “substrate phage enrichment score” value was 5.43. GLMSSGV was tested, and the “substrate phage enrichment score” value was 2.62. With STRRDYG the “substrate phage enrichment score” value was > 31. MRSTSLQ was tested, and the “substrate phage enrichment score” value was > 90. With PSLHSAG the “substrate phage enrichment score” value was > 23. With AHTKSEK the “substrate phage enrichment score” value was > 31. With NSRHHHH the “substrate phage enrichment score” value was > 21. APAHHHH was tested, and the “substrate phage enrichment score” value was 1.33. With KGAAQNG the “substrate phage enrichment score” value was > 30. In the case of CPSSLYG, the “substrate phage enrichment score” value is reported as 8.67. For QLNFQGG, the “substrate phage enrichment score” value was 3.8. In the case of HCYHDQR, the “substrate phage enrichment score” value is reported as 1. In the case of ATRQEEH, the “substrate phage enrichment score” value is reported as 0.714. For TPALQSY, the “substrate phage enrichment score” value was 11. For QVRGQNR, the “substrate phage enrichment score” value was 0.846. For CNAGRLT, the “substrate phage enrichment score” value was 2.29. For WRSSATK, the “substrate phage enrichment score” value was > 28. For PLLYQPK, the “substrate phage enrichment score” value was 1. With PTAHHHH the “substrate phage enrichment score” value was 0.244. For SHNVAPR, the “substrate phage enrichment score” value was > 21. In the case of LFEWHSP, the “substrate phage enrichment score” value is reported as 1.5. ANLQSMH was tested, and the “substrate phage enrichment score” value was > 34. RYSPSTV was tested, and the “substrate phage enrichment score” value was 0.533. PDAAHHH was tested, and the “substrate phage enrichment score” value was 1.94. With TESKCYP the “substrate phage enrichment score” value was > 95. With HTQRCQA the “substrate phage enrichment score” value was > 23. CTQDLTG was tested, and the “substrate phage enrichment score” value was 0.087. In the case of APVTADQ, the “substrate phage enrichment score” value is reported as 0.316. In the case of KRHECPC, the “substrate phage enrichment score” value is reported as 4.33. In the case of CKSKSEN, the “substrate phage enrichment score” value is reported as 1.93. For CATGRLS, the “substrate phage enrichment score” value was 0.263. With STSFAPG the “substrate phage enrichment score” value was 0.225.
